Experimental data taken from patent US10017546B2 (KOREA ADVANCED INSTITUTE OF SCIENCE AND TECHNOLOGY, priority 2015, dated 2018).

Assays:
biotin-DNA = experiment: Binding titration of MA-Ft with biotinylated DNA probe; settings: supported by titration
Method: FIG. 18 illustrates binding titration of MA-Ft with a biotinylated DNA probe. 0.1 μM of MA-Ft was titrated with varying concentrations of biotin-DNA (0-4 μM). […] Clear levels of free biotin-DNA were observed only with over 2.4 μM of biotin-DNA.

SOAS2 cells = experiment: Clustering and internalization of biotinylated cell-surface proteins; format: cell-based
Method: (§1) Following biotinylation, the cells were washed twice with cold PBS-CM, treated with 100 mM glycine in PBS-CM for blocking, and washed again twice with cold PBS. […] Unbound avidin proteins were removed, and media was replaced with pre-warmed DMEM (37° C.). Cells were incubated for 5, 10, or 30 m at 37° C. Cells were washed, and fixed with 4% formaldehyde in PBS for confocal imaging (ZEISS, LSM510 META). To visualize endosome or lysozome-specific proteins, cells were fixed, permeabilized, and incubated with a primary antibody: anti-Rab11 (a GTPase of recycling endosome, Abcham) or anti-LAM P1 (Lysosomal-associated membrane protein 1, Abcham). Afterward, cells were incubated with a fluorescent secondary antibody (goat anti-rabbit 555, Abcham), and images were acquired with a confocal microscopy (ZEISS, LSM510 META).

U2OS cells = experiment: as above; format: cell-based
Method: as §1

HeLa cells = experiment: as above; format: cell-based; settings: Cy5-labeled avidin proteins, 37° C.
Method: as §1

- biotin binding sites (biotin-DNA): 24
B1: MA-Ft: monodin fused to 24-meric human ferritin via protein G linker (SEQ ID NO: 10) (protein)
chain: MFDASNFKDFSSIASASSSWQNQHGSTMIIQVDSFGNVSGQYVNRAEGTGCQNSPYPLTGRVNGTFIDFSVKWNNSTENCNSNTQWTGYAQVNGNNTEIVTRWNLKYEGGSGPAIWQGQDTFQYVPTTEAEAAAKEAAAKEAAAKATYKLVINGKTLKGETTTKAVDAETAEKAFKQYANDYGVDGVWTYDDATKTFTVTEKPEVIDASELTPAVTTYKLVINGKTLKGETTTKAVDAETAEKAFKQYANDYGVDGVWTYDDATKTFTVTEGGGGSGSGGGG[about 200 residues cut from this listing]
modifications: amino acid sequence of MA-Ft
- internalization by clustering (SOAS2 cells): Rapid internalization
- internalization by clustering (U2OS cells): Rapid internalization
- incubation time after which avidin protein was internalized (HeLa cells): 5 min
